Measurements published in PubChem BioAssay AID624296 (National Center for Advancing Translational Sciences (NCATS), 2012).
Screen size: about 350,000 compounds; about 9,900 (2.8%) were called active. This list was built around the results that the source calls inconclusive (neither active nor inactive); the mix of calls is not that of the screen. The call rests on the fitted dose curve; in most records, active means well fitted activation curve with a large enough effect; inconclusive means small, poorly fitted or top-dose-only effect; inactive means no such curve, though single readings can be large or run the other way. No potency is given beside an inconclusive call; the fits are too rough.
Potency means the concentration at half of the fitted maximal effect; tags describe the fitted curve by direction and shape.

Assay: A quantitative high throughput screen for small molecules that induce DNA re-replication in MCF 10a normal breast cells. Further: nearly all actives have a fitted effect of over 50% in size. On activity, positive = re-replication: % of control where 0% means no effect.
Details: MCF 10A DNA re-replication, Hoechst nuclear intensity, 48 h; activity, positive = re-replication: at 46.1 µM (top of the series)
For COc1ccc(-n2nc(C(=O)NCC(=O)Nc3ccccn3)c3ccccc3c2=O)cc1, the Potency was inconclusive [activator, single point]. With CCCCCCn1c(SCC(=O)Nc2cc(C)on2)nc2ccccc2c1=O the Potency was inconclusive [activator, single point]. In the case of CC(C)P(=O)(Cc1cccc(C#N)c1)C(C)C, the Potency is reported as inconclusive [activator, single point]. In the case of CC(=O)N1c2ccccc2N(Cc2ccc(C)cc2C)C(=O)C1(C)C, the Potency is reported as active: 11.6 µM. For CN1C(=O)CSC1=Nc1cccc(Cl)c1, the “activity, positive = re-replication” value was inactive: 4.96%. In the case of COc1ccc(-c2nn(-c3ccccc3)cc2/C=C/C(=O)OCC(=O)Nc2ccccc2C#N)cc1, the Potency is reported as active: 14.6 µM. In the case of Cc1ccc(C(C(=O)NCC2CCCO2)N(C(=O)c2snc(C(N)=O)c2N)c2ccc3c(c2)OCCO3)cc1 (stereo unspecified), the Potency is reported as inconclusive [activator, single point]. For Cc1c(C(=O)OC(C)C)sc(NC(=O)c2cccnc2)c1C#N, the Potency was inconclusive [activator, single point]. For CCc1nn2cc(C(=O)c3ccccc3O)cnc2c1-c1ccc(F)cc1, the Potency was inconclusive [activator, partial curve, poor fit]. With Cc1cc(C)c(C)c(/C=C(/C#N)C(N)=S)c1C the Potency was inconclusive [activator, partial curve, poor fit]. For CCN(CC(=O)NCc1ccc(Cl)cc1)S(=O)(=O)c1ccc(NC(C)=O)cc1, the Potency was inconclusive [activator, single point]. In the case of O=C1CCCc2nc(N3CCc4ccccc43)ncc21, the Potency is reported as inconclusive [activator, single point]. In the case of COc1ccc(/C=N/N2CCOCC2)cc1COc1ccc(Cl)cc1, the Potency is reported as inconclusive [activator, partial curve, poor fit]. In the case of COc1ccc(CCNC(=O)C2CC(=O)N(C3CCCC3)C2)cc1OC (stereo unspecified), the Potency is reported as inconclusive [activator, single point]. With CC1(C)Cc2c(cnn2-c2ccc(F)cc2)C(NC(=O)CCN2CCCC2=O)C1 (stereo unspecified) the Potency was inconclusive [activator, single point]. With Cc1cccc2sc(N(CCN(C)C)C(=O)/C=C/c3cccs3)nc12 the Potency was active: 23.1 µM. With O=C(O)c1cccc(N2C(=O)c3ccc4c5c(ccc(c35)C2=O)C(=O)N(c2cccc(C(=O)O)c2)C4=O)c1 the “activity, positive = re-replication” value was inactive: -11%. With S=c1[nH]nc(Cc2ccc(Br)cc2)n1/N=C/c1ccc(Cl)cc1 the Potency was inconclusive [activator, single point]. In the case of CCN(Cc1ccccc1)c1ccc(/C=N/N=C(N)N)cc1, the Potency is reported as inconclusive [activator, partial curve, poor fit]. In the case of COc1cc(OC)cc(C(=O)N2CCN(C3CCC(C)CC3)CC2)c1 (stereo unspecified), the Potency is reported as inconclusive [activator, partial curve, poor fit]. In the case of CCC1Oc2ccccc2N(Cc2ccccc2C)C1=O (stereo unspecified), the “activity, positive = re-replication” value is reported as inactive: 3.44%. In the case of COC(=O)C1(Cc2cc(-c3cccc(Br)c3)no2)CCN(C(=O)OC(C)(C)C)CC1, the Potency is reported as inconclusive [activator, single point]. With O=C(N/N=C\c1cccnc1)c1cc(-c2ccc(Cl)s2)[nH]n1 the Potency was inconclusive [activator, single point]. For N#Cc1c(NC(=O)c2ccc([N+](=O)[O-])o2)sc2c1CCC2, the Potency was active: 20.6 µM. With CCC(=O)Nc1ccc2nc(C)n(Cc3ccccc3Cl)c(=O)c2c1 the “activity, positive = re-replication” value was inactive: -0.14%. In the case of COc1ccc(Br)cc1CN(C)CC(=O)Nc1ccccc1Cl, the Potency is reported as inconclusive [activator, partial curve, poor fit]. In the case of CCOC(=O)C1(S(=O)(=O)c2ccc(Cl)cc2)CCN(Cc2ccc(C)cc2)CC1, the Potency is reported as inconclusive [activator, single point]. With CC(=O)c1ccc(N2CCN(c3ccc4cc(S(=O)(=O)N5CCC(C)CC5)ccc4n3)CC2)cc1 the Potency was inconclusive [activator, full curve, poor fit]. With N#CC1=C(Nc2ccccc2)SC=C(c2ccccc2)N=C1N1CCOCC1 the Potency was inconclusive [activator, partial curve, poor fit]. In the case of Cc1ccc2c(c1)nnn2C1CCN(S(=O)(=O)c2ccc(C(=O)N3C(C)CCCC3C)cc2)CC1 (stereo unspecified), the Potency is reported as inconclusive [activator, single point]. For CCOc1ccc2nc(NC(=O)Cn3[nH]c(=O)c4ccccc4c3=O)sc2c1, the Potency was active: 20.6 µM. For O=C(c1cc(-c2cccs2)on1)N1CCN(C(c2ccccc2)c2ccccc2)CC1, the Potency was inconclusive [activator, full curve, poor fit]. With O=C(C[C@H]1C/C=C\C[C@H](NC(=O)OCC2c3ccccc3-c3ccccc32)C(=O)OC[C@H]2CCCN2C1=O)NCCO the “activity, positive = re-replication” value was inactive: -2.22%. In the case of COc1ccc(NC(=O)CCS(=O)(=O)c2ccccc2Cl)cc1S(=O)(=O)Nc1ccc(Cl)cc1, the Potency is reported as active: 16.4 µM. With O=C(CN1C(=O)NC2(CCCCC2)C1=O)Nc1cc(C(F)(F)F)ccc1N1CCCCC1 the Potency was inconclusive [activator, single point]. With O=C1CCCN1c1ccc(S(=O)(=O)Nc2ccc3c(c2)OCCO3)cc1 the “activity, positive = re-replication” value was inactive: 0.86%. For Cc1ccc(-c2cc(C(F)F)n3ncc(C(=O)N4CCN(c5cccc(C)c5C)CC4)c3n2)cc1, the Potency was inconclusive [activator, full curve, poor fit]. With O=C(Cc1csc(Nc2nc(=S)[nH]c3ccccc23)n1)NCCCN1CCN(c2ccccc2F)CC1 the Potency was active: 7.31 µM. In the case of Cc1ccc(S(=O)(=O)N(CC(=O)NCCC2=CCCCC2)Cc2ccccc2)cc1, the Potency is reported as inconclusive [activator, single point]. With CC(=O)N(/N=C/c1ccc([N+](=O)[O-])o1)c1nc2ccccc2c(=O)n1-c1ccccc1 the Potency was inconclusive [activator, single point]. For O=C(NCCCO)C(=O)Nc1cc2c3c(c1)CCC(=O)N3CCC2, the Potency was inconclusive [activator, partial curve, poor fit].
